The supplement of paper PMC9446081
About 220 (0.56%) of roughly 39,000 compounds showed activity. Some of the results follow.

System: Escherichia coli K-12 BW25113
Test: relative growth (OD600 normalised to plate interquartile mean) (fraction); higher = less growth inhibition, active = 0.2 or less
Details: 50 µM; LB; incubation time: overnight (16-24 h)
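Also: static incubation at 37 °C against the wild-type strain, values averaged over two biological replicates.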

| SMILES | relative growth |
| --- | --- |
| COc1ccc(NC(=O)Nc2ccc3c(c2)C(=O)N([C@H](C)CO)C[C@@H](C)[C@H](CN(C)C(=O)Cc2ccccc2)OCCCC[C@H](C)O3)cc1 | inactive: 0.99 |
| C[C@@H]1CN([C@H](C)CO)C(=O)c2cccc(NS(=O)(=O)c3ccc(Cl)cc3)c2O[C@@H]1CN(C)C(=O)Nc1cccc2ccccc12 | inactive: 0.999 |
| C[C@@H]1CN([C@@H](C)CO)C(=O)c2cc(NC(=O)Nc3ccccc3)ccc2O[C@H]1CN(C)CC1CCCCC1 | inactive: 0.997 |
| C[C@@H]1CN([C@@H](C)CO)C(=O)c2cccc(NC(=O)C3CCOCC3)c2O[C@@H]1CN(C)Cc1ccc(-c2ccccc2)cc1 | inactive: 1.03 |
| C[C@H](CO)N1C[C@H](C)[C@H](CN(C)C(=O)Nc2ccccc2)OCc2ccccc2-c2c(n(C)c3ccccc23)C1=O | inactive: 1.01 |
| CC(C)c1c(O)c(-c2cc3c(c(C(C)C)c2O)CC[C@H]2C(C)(C)CCC[C@]32C)cc2c1CC[C@H]1C(C)(C)CCC[C@]21C | inactive: 0.995 |
| C[C@H](CO)N1C[C@H](C)[C@H](CN(C)Cc2ccncc2)Oc2ccc(NC(=O)Cn3cnnn3)cc2CC1=O | inactive: 1 |
| C[C@H]1CN([C@@H](C)CO)C(=O)c2cc(NC(=O)Cc3cn(C)c4ccccc34)ccc2O[C@@H]1CN(C)Cc1ccc(Cl)c(Cl)c1 | inactive: 0.971 |
| C[C@@H]1CN([C@@H](C)CO)C(=O)c2cc(NC(=O)Cc3ccccc3)ccc2O[C@@H](C)CCCCO[C@@H]1CN(C)S(=O)(=O)c1ccc(F)cc1 | inactive: 1.01 |
| O=C(Nc1cc(Cl)ccc1Cl)c1cc(Cl)ccc1NS(=O)(=O)c1ccc(Cl)c([N+](=O)[O-])c1 | inactive: 0.704 |
| CCC[C@@H](O)C#Cc1cnc2c(c1)C(=O)N([C@H](C)CO)C[C@H](C)[C@H](CN(C)Cc1ccc3c(c1)OCO3)O2 | inactive: 0.98 |
| C[C@@H]1CN([C@H](C)CO)C(=O)Cc2cc(NC(=O)C3CCCCC3)ccc2O[C@H]1CN(C)Cc1ccc(Oc2ccccc2)cc1 | inactive: 1 |
| COc1ccccc1-c1ccc2c(c1)O[C@H](CN(C)S(=O)(=O)c1ccccc1)[C@H](C)CN([C@H](C)CO)S2(=O)=O | inactive: 1.04 |
| C[C@H](CO)N1C[C@H](C)[C@H](CN(C)C(=O)Nc2ccc(F)cc2)OCCCC[C@H](C)Oc2ccc(NC(=O)c3ccccc3)cc2C1=O | inactive: 1.02 |
| C[C@@H]1CN([C@H](C)CO)C(=O)c2cccc(NC(=O)Nc3ccc(C(F)(F)F)cc3)c2O[C@@H]1CN(C)Cc1ccc2c(c1)OCO2 | inactive: 0.946 |
| C[C@@H]1CN([C@H](C)CO)C(=O)c2cccc(NC(=O)c3ccncc3)c2O[C@@H]1CN(C)Cc1ccc(C(=O)O)cc1 | inactive: 0.996 |
| Cc1noc(C)c1NC(=O)Nc1cccc2c1O[C@H](CN(C)S(=O)(=O)c1ccccc1)[C@H](C)CN([C@@H](C)CO)C2=O | inactive: 1.01 |
| C[C@@H]1CN([C@@H](C)CO)C(=O)Cc2cc(NC(=O)Cc3ccccc3)ccc2O[C@@H]1CN(C)C(=O)Nc1ccc(C(F)(F)F)cc1 | inactive: 0.998 |
| Cc1noc(C)c1NC(=O)Nc1ccc2c(c1)CC(=O)N([C@H](C)CO)C[C@H](C)[C@H](CN(C)C(=O)NC(C)C)O2 | inactive: 0.993 |

| SMILES | relative growth |
| --- | --- |
| C[C@H](CO)N1C[C@H](C)[C@@H](CN(C)C(=O)Nc2ccc(C(F)(F)F)cc2)Oc2ccc(NC(=O)C3CCCCC3)cc2CC1=O | inactive: 1 |
| CCCNC(=O)N(C)C[C@H]1Oc2cc(-c3ccccc3F)ccc2S(=O)(=O)N([C@@H](C)CO)C[C@H]1C | inactive: 1.02 |
| Cc1ccc(S(=O)(=O)Nc2ccc3c(c2)C(=O)N([C@@H](C)CO)C[C@@H](C)[C@@H](CN(C)C(=O)CCC(F)(F)F)OCCCC[C@H](C)O3)cc1 | inactive: 0.97 |
| O=C(N/N=C/[C@H](O)[C@@H](O)[C@H](O)[C@H](O)CO)c1ccccn1 | inactive: 1 |
| Cc1ccc(S(=O)(=O)Nc2ccc3c(c2)C(=O)N([C@H](C)CO)C[C@H](C)[C@@H](CN(C)C(=O)Nc2ccccc2)OCCCC[C@H](C)O3)cc1 | inactive: 1.01 |
| CNC1C(OC2C(OC3C(O)C(O)C(NC(=N)N)C(O)C3NC(=N)N)OC(C)C2(O)C=O)OC(CO)C(O)C1O.O=S(=O)(O)O (configuration not stated) [STREPTOMYCIN SULFATE [5mM; 10% aq DMSO + 5mM ethanolamine]] | inactive: 1.11 |
| O=C(O)Cc1cc(I)c(Oc2ccc(O)c(I)c2)c(I)c1 | inactive: 1.09 |
| C[C@@H]1CN([C@H](C)CO)C(=O)CCCn2cc(nn2)CO[C@H]1CN(C)C(=O)c1ccc(N2CCN(C)CC2)cc1 | inactive: 0.991 |
| CC1CC2C3CCC4=CC(=O)C=CC4(C)C3(Cl)C(O)CC2(C)C1(OC(=O)c1ccco1)C(=O)CCl (configuration not stated) | inactive: 0.877 |
| CC(C)(C)C(=O)CC1(O)CCCCC1 | inactive: 1.02 |
| Cc1ccc(S[C@]2(C(=O)NCCCN(C)C)CC(=O)N(Cc3ccccc3Cl)[C@@H]2c2ccc(CO)cc2I)cc1 | inactive: 0.938 |
| CC1C(=O)CCC2C1(C)CCC1C2(C)CCC2(C)C3CC(C)(C)CCC3(C)CCC12C (configuration not stated) | inactive: 0.978 |
| CCOC(=O)CN1C(=O)c2ccccc2C1=O | inactive: 1.02 |
| Cc1noc(C)c1NC(=O)N(C)C[C@@H]1Oc2ccc(NC(=O)c3ccncc3)cc2C(=O)N([C@@H](C)CO)C[C@@H]1C | inactive: 0.983 |
| COc1ccc(cc1)S(=O)(=O)N1C[C@]2(CN(Cc3ccncc3)[C@H](CO)c3[nH]c4cc(ccc4c32)OC)C1 | inactive: 1.01 |
| C[C@@H]1CCCCO[C@@H](CN(C)C(=O)Cc2ccccc2)[C@@H](C)CN([C@H](C)CO)C(=O)c2cc(NC(=O)NC3CCCCC3)ccc2O1 | inactive: 1.01 |
| C[C@H](CO)N1C[C@H](C)[C@@H](CN(C)S(=O)(=O)c2cn(C)cn2)Oc2c(NS(C)(=O)=O)cccc2C1=O | inactive: 1.02 |
| C[C@@H]1CN([C@H](C)CO)C(=O)c2cc(NC(=O)c3ccncc3)ccc2O[C@@H]1CN(C)Cc1ccc2c(c1)OCO2 | inactive: 0.987 |
| C[C@H](CO)N1C[C@H](C)[C@@H](CN(C)C(=O)Nc2ccccc2)OCCCC[C@H](C)Oc2ccc(NC(=O)Nc3ccc4c(c3)OCO4)cc2C1=O | inactive: 1.02 |

| SMILES | relative growth |
| --- | --- |
| C[C@H]1CN([C@@H](C)CO)C(=O)c2cc(-c3cccc(C(=O)N(C)C)c3)cnc2O[C@H]1CN(C)C(=O)Cc1ccccn1 | inactive: 1.02 |
| COc1ccc(NC(=O)Nc2ccc3c(c2)C(=O)N([C@H](C)CO)C[C@@H](C)[C@@H](CN(C)CC2CCCCC2)OCCCC[C@@H](C)O3)cc1 | inactive: 0.984 |
| COc1ccc(S(=O)(=O)Nc2ccc3c(c2)C(=O)N([C@@H](C)CO)C[C@H](C)[C@@H](CN(C)S(=O)(=O)c2ccc(Cl)cc2)OCCCC[C@H](C)O3)cc1 | inactive: 1.06 |
| C[C@@H]1CN([C@@H](C)CO)C(=O)c2cc(NC(=O)Cc3ccccc3)ccc2O[C@@H](C)CCCCO[C@@H]1CN(C)C(=O)Nc1ccc2c(c1)OCO2 | inactive: 0.972 |
| C=CCN([C@@H](Cc1ccccc1)[C@@H](O)c1cn(CCCCCCNC(=O)C(=O)NC)nn1)S(=O)(=O)c1ccccc1[N+](=O)[O-] | inactive: 0.95 |
| O=C(C[C@@H]1C[C@H]2c3cc(NS(=O)(=O)c4ccc(F)cc4)ccc3O[C@H]2[C@H](CO)O1)NC1CCCCC1 | inactive: 1 |
| COc1cc(C(C)=O)cc(OC)c1O | inactive: 0.953 |
| C[C@H](CO)N1C[C@H](C)[C@@H](CN(C)Cc2ccc(Cl)c(Cl)c2)Oc2c(NS(=O)(=O)c3ccccc3)cccc2C1=O | inactive: 1.07 |
| C[C@H]1CCCCO[C@H](CN(C)S(=O)(=O)c2ccc(F)cc2)[C@@H](C)CN([C@@H](C)CO)C(=O)c2cc(NS(=O)(=O)c3cn(C)cn3)ccc2O1 | inactive: 0.99 |
| CCCNC(=O)N(C)C[C@H]1Oc2cc(-c3ccc(C)cc3)ccc2S(=O)(=O)N([C@H](C)CO)C[C@H]1C | inactive: 1.02 |
| COc1ccc(NC(=O)Nc2ccc3c(c2)C(=O)N([C@H](C)CO)C[C@H](C)[C@H](CN(C)CC2CC2)OCCCC[C@@H](C)O3)cc1 | inactive: 1.01 |
| C[C@]1(C(=O)O)c2ccccc2C(=O)N(Cc2cc(C(F)(F)F)cc(C(F)(F)F)c2)[C@H]1c1ccc(CO)cc1 | inactive: 0.98 |
| C[C@@H]1CN([C@@H](C)CO)C(=O)c2cc(NC(=O)Nc3cccc4ccccc34)ccc2O[C@@H](C)CCCCO[C@H]1CN(C)C(=O)C1CCCCC1 | inactive: 1.01 |
| C[C@H]1CCCCO[C@@H](CN(C)C(=O)Nc2ccccc2)[C@@H](C)CN([C@@H](C)CO)C(=O)c2cc(NC(=O)c3ccccc3)ccc2O1 | inactive: 1.04 |
| COCC#Cc1ccc2c(c1)O[C@H](CN(C)C(=O)C1CCCCC1)[C@H](C)CN([C@H](C)CO)S2(=O)=O | inactive: 0.988 |
| CC(C)(C)[S@@](=O)N1Cc2cc(C(=O)NCc3ccncc3)nc(-c3cccc(-c4ccc(C#N)cc4)c3)c2[C@H]1CCO | inactive: 1.04 |
| Cc1ccc(-c2ccc3c(c2)O[C@H](CN(C)Cc2cncnc2)[C@H](C)CN([C@@H](C)CO)S3(=O)=O)cc1 | inactive: 1.02 |
| C[C@H]1CN([C@@H](C)CO)C(=O)Cc2cc(NC(=O)CCCN(C)C)ccc2O[C@@H]1CN(C)S(=O)(=O)c1ccccc1 | inactive: 0.981 |
| Cc1cc(C(=O)Nc2cccc3c2O[C@H](CN(C)C(=O)Nc2c(C)noc2C)[C@@H](C)CN([C@H](C)CO)C3=O)n(C)n1 | inactive: 1.02 |
